Measurements published in PubChem BioAssay AID1347041 (National Center for Advancing Translational Sciences (NCATS), 2019).
The whole screen tested about 480,000 compounds, of which about 740 (0.15%) were called active. This list was built around the results that the source calls inconclusive (neither active nor inactive); the mix of calls is not that of the screen. No stated cut-off is given here; in the data, active means activity change below about -30%; inconclusive means mostly about -25% to -30%; inactive means weaker than that.

Molecular target: L-lactate dehydrogenase A chain (Homo sapiens) (UniProt P00338)
Experiment: qHTS assay for inhibitors of human lactate dehydrogenase;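 further: values are at about 110 or 230 µM; plate controls were DMSO wells for no effect and wells without enzyme for full effect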
Details: purified LDHA, NADH/diaphorase-resazurin fluorescence; stronger effect = lower value
How it was run: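 Remaining NADH was detected by diaphorase (0.133 mg/mL) converting 37 µM resazurin to fluorescent resorufin, read at 0 and 20 minutes. The preceding 5-minute room-temperature reaction used 2 nM LDHA, 0.2 mM sodium pyruvate and 0.06 mM NADH at pH 7.4.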

Activity change, active:
Cc1ccc2c(CN(C)CCOc3ccc(F)cc3)cc(=O)oc2c1 -32.8%
CC(C(=O)N1CCCc2ccccc21)N1CCN(c2ccccn2)CC1 (centres undefined) -38.1%
O=C(Nc1cccc(Cl)c1)Nc1nnc([C@H]2C[C@H](O)[C@@H](CO)O2)s1 -30.4%
O=C(N/N=C/c1cc(Br)c(Br)o1)c1cc2ccccc2o1 -43.6%
COC(=O)Cc1cc(=O)n(-c2nc3ccccc3[nH]2)[nH]1 -40%
N#CCC(=O)N/N=C/c1ccc(Sc2nc3ccccc3s2)o1 -47.9%
Cc1cccc(NC(=O)COc2ncnc3ccc(Br)cc23)c1C -30.8%
O=C(O)c1ccccc1CSc1nc2ccccc2n1Cc1ccccc1C(=O)O -32.1%

Activity change, inconclusive:
C[N+](C)(C)CCN(Cc1ccc(Cl)cc1)c1ccccn1 -29%
COc1cccc(C(=O)N2CCN(C3CCN(Cc4ccccc4)CC3)CC2)c1OC -25%
OCC1CCCN(Cc2ccc(-c3ccccc3)cc2)C1 (centres undefined) -29.9%
CCCCCn1ccc(=N)cc1 -27.1%
COc1cccc(-c2nc(N3CCCC3)c3ccccc3n2)c1O -25.4%
COc1ccc(CNC(=O)CS(=O)(=O)Cc2nc(-c3cccc(OC)c3)oc2C)cc1 -25.8%
CC1CCC(NC(=O)c2ccc3ncsc3c2)CC1 (centres undefined) -27.7%
O=C(CCCc1c[nH]c2ccccc12)NCCc1c[nH]c2ccccc12 -29.4%
COc1cc(OC)c(OC)cc1/C=C1\N=C(SC)SC1=O -28.1%
COc1ccc(N2CCN(CC(=O)Nc3cc(C)on3)CC2)cc1 -30%
CCN(c1ccccc1)S(=O)(=O)c1ccc(C(=O)OC2CCCCC2=O)cc1 (centres undefined) -26%
COCc1oc2c(cc(NS(=O)(=O)c3ccc(C)cc3)c3ccccc32)c1C(=O)OC -25.6%
Cc1c(CC(=O)NCCc2ccc(Cl)cc2)c(=O)oc2c(C)c(O)ccc12 -29.2%
CCCC(C)NC(=O)CSCc1coc(-c2ccc(Cl)cc2)n1 (centres undefined) -27.3%
N#Cc1nc(-c2ccc(S(=O)(=O)N3CCCC3)cc2)oc1NCc1ccc2c(c1)OCO2 -29.9%
COc1ccc(C(NC(=O)c2sc(-c3ccsc3)nc2C)c2nccn2C)cc1 (centres undefined) -25.3%
CCN(CC(=O)Nc1ccccc1OC)CC(=O)Nc1ccccc1-c1ccccc1 -25.9%
Cc1ccc(Cl)cc1N(C)C(=O)Cn1nc(Cc2cccnc2)c2ccccc2c1=O -26.8%
CCOC(=O)Cc1ccc(NC(=O)N2CCC(CN3CCc4ccccc4C3)CC2)cc1 -26.5%
CC(C)(Oc1ccc(Cl)cc1)C(=O)Nc1ccc2oc(=O)ccc2c1 -27.3%
Cc1cc(Br)cc(C)c1C(=O)O -29.1%
Cc1cc(OCCn2ccnc2)cc(C(C)C)c1 -27.8%
Cc1cccc(NC(=O)CN2C(=O)COc3ccc(S(=O)(=O)N4CCC(C)CC4)cc32)c1C -29.4%
Cc1ccc(S(=O)(=O)c2c[nH]c3ccc(Cl)cc3c2=O)cc1 -26%
COc1cc(/C=C/c2cccc[n+]2C)ccc1OCC(=O)Nc1ccccc1C -25.6%
CCCC(=O)NCc1ccc(-c2nc3ccccc3s2)cc1 -25%
COC(=O)c1ccc(NC(=O)C2CCN(C(=O)c3cc(OC)c(OC)c(OC)c3)CC2)cc1 -27.2%
O=C(OC[C@H]1O[C@@H](OC(=O)c2cc(O)c(O)c(OC(=O)c3cc(O)c(O)c(O)c3)c2)[C@H](OC(=O)c2cc(O)c(O)c(OC(=O)c3cc(O)c(O)c(O)c3)c2)[C@@H](OC(=O)c2cc(O)c(O)c(OC(=O)c3cc(O)c(O)c(O)c3)c2)[C@@H]1OC(=O)c1cc(O)c(O)c(OC(=O)c2cc(O)c(O)c(O)c2)c1)c1cc(O)c(O)c(OC(=O)c2cc(O)c(O)c(O)c2)c1 -25.8%
CCc1cc(C(=O)NCC(c2ccc(OC)cc2)N2CCOCC2)sc1C (centres undefined) -25.2%
COc1ccc(C(=O)n2nc(-c3ccc(C)cc3)nc2N)cc1 -25.3%
C=CCC1(CC=C)CCCN1 -26.5%
Cc1oc2cc(OCc3ccc(F)cc3)ccc2c(=O)c1Oc1ccccc1 -26%
Cc1nnc2ccc(SCC(=O)Nc3ccc(F)c(Cl)c3)nn12 -27.4%
Cc1oc(-c2cccc(C(F)(F)F)c2)cc1C(=O)NC(C)C -27.8%

Activity change, inactive:
COc1cc(-c2c(CCO)sc3ccccc23)cc(OC)c1OC 0.992%
COC(=O)CN(n1cnnc1)S(=O)(=O)c1ccc(C)cc1 -2.5%
COc1ccc(CCNC(=O)COC(=O)c2ccc([N+](=O)[O-])o2)cc1 12.7%
COc1ccc(C(=O)NCc2cccc(OC)c2)cc1 9.93%
COc1ccc(OCC(=O)N2CCN(c3nnc(-c4ccccc4)c4ccccc34)CC2)cc1 3.05%
CCC(CC)C(=O)OCC(=O)NC12CC3CC(CC(C3)C1)C2 1.93%
Cc1cccc(-c2cc(NC=O)c3ncc(-c4cccc(C(=O)N(C)C)c4)n3c2)c1 -3.21%
CCCn1c(=O)c2ccc(C(=O)NC(C)CC)cc2n2c(SCc3ccccc3)nnc12 (centres undefined) -0.301%
Cc1ccc(N2C(=O)C3C(C2=O)C(C(=O)c2ccc(Cl)cc2)N2CCCC32)cc1 (centres undefined) -5.51%
CCCCNC(=O)N1CCN(C(=O)Cc2c[nH]c3ccccc23)CC1 -10.6%
FC(F)(F)c1cccc(NC(=S)NCCc2c[nH]c3ccccc23)c1 0.498%
CCCOc1ccc(C(=O)Nc2ccc3c(c2)OCO3)cc1 -2.54%
